Assay results: ChEMBL document CHEMBL1201862, “PubChem BioAssay data set” (2004)
Where a name gives a salt, the structure may show the parent alone.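 Dose response: 5 concentrations. Exposure: 48 h. Format: 96-well plates. Endpoint: linear interpolation; highest concentration if not reached. GI50 marks 50% less growth.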 Active and inactive are the calls of the source. No stated cut-off is given here; in the data, active = GI50 up to about 1.1 µM and inactive = higher.

Tested on: NCI-H322M
Assay: NCI anticancer screen, dose series, 48 h

| SMILES | GI50 |
| --- | --- |
| O=C1OC(c2cccc(C(F)(F)F)c2)c2ccc3ccccc3c21 (stereo unspecified) | inactive: > 10 µM |
| Cc1cccc2c1C(=O)OC2(c1cccc2ccccc12)c1cccc2ccccc12 | inactive: > 100 µM |
| NC(=O)Nc1c([N+](=O)[O-])cc(C(F)(F)F)cc1[N+](=O)[O-] | inactive: > 100 µM |
| C1=C(N2CCOCC2)/C(=C2\SC(=N/c3ccccc3)/C(=N\c3ccccc3)N2c2ccccc2)CC1 | inactive: > 100 µM |
| Cc1cc(C)c(NC(=S)NC(=O)c2ccccc2)cc1C | inactive: > 100 µM |
| COc1cccc2c1C(=O)c1c(O)c3c(c(O)c1C2=O)C[C@@](O)(C(=O)CO)CC3OC1CC(O)C(O)C(C)O1 (stereo partly specified) | active: 0.641 µM |
| COC1OC2COC1(OC)C1OC(C)(C)OC21 (stereo unspecified) | inactive: > 100 µM |
| CSc1c([S+](C)[O-])c2ccccc2n1C (stereo unspecified) | inactive: > 100 µM |
| COC1=CC(=O)c2c(cc(COP(N)(=O)N(CCBr)CCBr)n2C)C1=O (stereo unspecified) | inactive: 1.75 µM |
| CCN(CC)C(=O)CCn1cc(F)c(=O)[nH]c1=O | inactive: > 100 µM |
| Cc1cc(O)c2c(=O)c3ccccc3[nH]c2c1 | inactive: 42.6 µM |
| C=CCNc1ccc(C)cc1 | inactive: > 100 µM |
| C[C@H]1C2Cc3cc(N)ccc3[C@@]1(C)CCN2CCc1ccccc1 | inactive: 70.8 µM |
| COc1cc(C(C)O)c[n+](CCc2c[nH]c3ccccc23)c1 (stereo unspecified) | inactive: > 100 µM |
| O=S(=O)(N/N=C/c1cccc(Cl)c1Cl)c1ccccc1 | inactive: > 100 µM |
| CC[C@@]1(O)C(=O)OCc2c1cc1n(c2=O)Cc2c-1nc1ccccc1c2/C=N\NC(=O)C(N)CC(C)C (stereo partly specified) | active: 0.174 µM |
| Cn1c(N)[n+](C(=O)OCc2ccccc2)c(=O)c2c1ncn2C(=O)OCc1ccccc1 | inactive: > 100 µM |
| CC(=O)O[C@H]1CCC2[C@@H]3CCC4Cc5nc6c(nc5C[C@]4(C)C3CC[C@@]21C)CC1CC[C@@H]2C(CC[C@@]3(C)C2CC[C@@H]3C(C)CCCC(C)C)[C@@]1(C)C6 (stereo partly specified) | inactive: > 100 µM |
| Nc1ccc2c(c1)C(=O)N1CCC[C@H]1C(=O)N2 | inactive: > 100 µM |
| COC(=O)CCSC1=CC(=O)c2nc3ccccc3c3ccnc1c23 | inactive: > 38.4 µM |
| Cc1nc(Nc2ccc(Cl)cc2)sc1C(=O)Nc1cccc2c(=O)[nH][nH]c(=O)c12 | inactive: > 100 µM |
| OCC(CCc1ccccc1I)C1=CCC2(CC1)OCCO2 (stereo unspecified) | inactive: 20.4 µM |
| CN(C)CCOc1ccc(/C(=C(/CCCl)c2ccccc2)c2ccccc2)cc1 [TOREMIFENE CITRATE] | inactive: 16.7 µM |

| SMILES | GI50 |
| --- | --- |
| COc1ccc2c(c1)OCC1Cc3cccc(OC)c3OC21 (stereo unspecified) | inactive: > 100 µM |
| O=C1OC(=O)C(=C\c2ccc3c(c2)OCO3)/C1=C/c1ccc2c(c1)OCO2 | inactive: > 100 µM |
| CCc1nc(N)nc(N)c1-c1ccc(Cl)c(/N=N/N(C)C)c1 | inactive: 47.1 µM |
| Cc1nc(Cl)c(Cl)c(Cl)n1 | active: 0.918 µM |
| O=C1c2cc3c(cc2CC12Cc1cc4c(cc1C2=O)CCC4)CCC3 | inactive: > 100 µM |
| COC(=O)C1CC/C(=N\c2cccc(C(F)(F)F)c2)N1 (stereo unspecified) | inactive: > 100 µM |
| COc1cccc(C2c3cc4c(cc3OC(C)(N3CCCC3)C2C)OCO4)c1OC (stereo unspecified) | inactive: 16.7 µM |
| O=C(Cc1ccccc1)NN1C(=O)C(Cl)C1c1ccccc1 (stereo unspecified) | inactive: > 100 µM |
| C=C1C(=O)OC2/C=C(\C)C3OC3/C=C(/C(=O)OC)C(OC(C)=O)C(OC(=O)C(C)(O)C(C)OC(C)=O)C12 (stereo unspecified) | inactive: 7.67 µM |
| CC1C(c2ccccc2O)c2cc3c(cc2OC1N1CCCC1)OCO3 (stereo unspecified) | inactive: 33.4 µM |
| Cc1ccc2c(c1)[nH]c(=S)n2C=C(C(N)=O)C(N)=O | inactive: > 100 µM |
| O=S(=O)(SC1=NCCN1)c1cccc2ccccc12 | inactive: 58.3 µM |
| COc1nc2[nH]ccc2c(=O)n1C | inactive: > 100 µM |
| CC1(C)Oc2ccc3c(=O)c(-c4ccccc4)c(-c4ccccc4)oc3c2C1C(=O)O (stereo unspecified) | inactive: > 100 µM |
| C[C@]12CC[C@H](OC(=O)Nc3ccccc3)CC1=CC[C@@H]1C2CC[C@]2(C)/C(=N/OC(=O)Nc3ccccc3)CCC12 (stereo partly specified) | inactive: > 100 µM |
| CC1=C(/C=C/C(C)=C/C2CC(N(C)C)=CC(=O)O2)C(C)(C)CCC1 (stereo unspecified) | inactive: 17 µM |
| C=CCCON(C(=O)OC(C)(C)C)C(C)(C)C | inactive: > 100 µM |
| O=C1c2scc(-c3ccccc3)c2-n2cccc21 | inactive: 21.4 µM |
| CC(C)CC1NC(=O)CCC(NC(=O)C(Cc2ccc(O)cc2)NC(=O)OCc2ccccc2)C(=O)NC(Cc2ccccc2)C(=O)NC(Cc2ccccc2)NC1=O (stereo unspecified) | inactive: > 100 µM |
| Cc1ccc(C2C(Cl)C(=O)N2NC(=O)c2ccc(N)cc2)cc1 (stereo unspecified) | inactive: 19.1 µM |
| CC1(C)CCCC2OC2CCC(C)(C)C1=O (stereo unspecified) | inactive: > 100 µM |
| CCOC(=O)Cc1nnc2c(-c3ccccc3)nc3ccccc3n12 | inactive: 16.6 µM |
| CC1CCOc2ccc(cc2)/C=N\c2ccc(cc2)-c2ccc(cc2)/N=C\c2ccc(cc2)OCC1 | inactive: > 100 µM |

| SMILES | GI50 |
| --- | --- |
| C/C(=N/NC(=S)N1CC2CCC(CC2)C1)c1cnccn1 | active: < 0.01 µM |
| CN1C(=O)C(=CNc2ccc(Cl)cc2Cl)C(=O)N(C)C1=O | inactive: > 100 µM |
| Cn1c2ccc(C3=NCCN3)cc2c2cc(C3=NCCN3)ccc21 | inactive: 12.6 µM |
| O=C(/N=C1/NCC(CN2CCN(c3ccccc3)CC2)O1)Nc1ccccc1 (stereo unspecified) | inactive: > 100 µM |
| COc1ccc(/N=N/c2c(-c3c(OC)cc4occc4c3OC)[nH]c(=O)c(C#N)c2C)cc1 | inactive: > 100 µM |
| O=C1C(Cl)=C(N2CCN(CCOCCO)CC2)C(=O)c2ccccc21 | inactive: 19.2 µM |
| O=C(Nc1sccc1S(=O)(=O)c1ccccc1)c1cccnc1 | inactive: 40.9 µM |
| C[N+]1([O-])C2CCC1CC(OC(=O)C(CO)c1ccccc1)C2 (stereo unspecified) | inactive: > 100 µM |
| CCOC(=O)N(c1ccccc1)N(CC)C(=O)/C(C)=N/Nc1ccc([N+](=O)[O-])cc1 | inactive: 21.6 µM |
| Oc1cccc2c(Cl)ccnc12 | inactive: 19.8 µM |
| O=C1C(c2ccc(Cl)cc2)=[N+]([O-])c2ccccc21 | inactive: 25.2 µM |
| COC(=O)CC1C2(C)C3=C(C)C(c4ccoc4)CC3OC2C2OC(=O)C3(C)C=CC(=O)C1(C)C23 (stereo unspecified) | inactive: 2.1 µM |
| O=C(NN=C1NCCCN1)c1ccco1 | inactive: > 100 µM |
| O=C1CC(CC(O)[C@@H]2CCCC[C@@H]2O)CC(=O)N1c1ccccc1 (stereo partly specified) | inactive: > 100 µM |
| CNC1=Nc2ccc(Cl)cc2C(OP(=O)(N2CCOCC2)N2CCOCC2)=NC1 | inactive: > 100 µM |
| O=C(Oc1ccc(S(=O)(=O)F)cc1F)c1ccccc1Cl | inactive: 52.2 µM |
| COc1ccc2c(C)cc(N/N=C/c3ccc(C)s3)nc2c1 | inactive: 6.37 µM |
| Cc1nc2c(C)ccc([N+](=O)[O-])c2c(NCCCN(C)C)c1C | inactive: > 60.3 µM |
| COc1ccc(Cc2c(=O)[nH]nc3ccccc23)cc1 | inactive: > 100 µM |
| COC(=O)/C=C/c1cc(OC)c(OC)c(OC)c1 | inactive: > 100 µM |
| N#CC(c1nc2ccccc2s1)c1ncnc(Cl)c1[N+](=O)[O-] (stereo unspecified) | inactive: 15.8 µM |
| CSc1nc(NC2OC(COC(C)=O)C(OC(C)=O)C(OC(C)=O)C2OC(C)=O)c(/N=C(\C)C(C)=O)c(=O)[nH]1 (stereo unspecified) | inactive: > 100 µM |
| COc1cc2c3cc1Oc1cc(ccc1O)C[C@@H]1c4c(cc(OC)c(O)c4Oc4ccc(cc4)C[C@@H]3N(C)CC2)CC[N+]1(C)C | inactive: > 100 µM |

| SMILES | GI50 |
| --- | --- |
| Cc1cc(C23OC4COC(C)(C)OC4C2OC(C)(C)O3)nc2ccccc12 (stereo unspecified) | inactive: > 100 µM |
| CC(=O)OC(C)C1C2=C(C(=O)CC1(C)O)C(=O)c1c(ccc(-c3ccc4c(c3O)C(=O)C3=C(C4=O)C(C(C)OC(C)=O)C(C)(O)CC3=O)c1O)C2=O (stereo unspecified) | inactive: 12.5 µM |
| C/C(=N\N=C(/S)SCc1ccccc1)c1ccccn1 | active: < 0.0149 µM |
| COc1cc2ccnc3c2c(c1OC)CC1CC(O)C(OC)CC31 (stereo unspecified) | inactive: 84.7 µM |
| CC(=N/NC(=S)Nc1c(C)n(C)n(-c2ccccc2)c1=O)/C(C)=N\NC(=S)Nc1c(C)n(C)n(-c2ccccc2)c1=O | inactive: > 100 µM |
| COC12CC(O)=C(C(C)=O)C(=O)C1(C)c1c(OC(C)=O)c(C)c(O)c(C(C)=O)c1O2 (stereo unspecified) | inactive: 13.2 µM |
| COC1=C2CC(C)CC(OC)C(O)C(C)/C=C(\C)C(OC(N)=O)C(OC)/C=C\C=C(/C)C(=O)NC(=C(/C=N/N3CCCCC3)C1=O)C2=O (stereo unspecified) | inactive: 33.3 µM |
| CN(CC(=O)O)c1ncc2c(n1)-c1ccccc1OC2c1ccccc1 (stereo unspecified) | inactive: > 100 µM |
| O=C(/C=C/c1ccccc1O)c1cccs1 | inactive: > 100 µM |
| C1=CC2(C=CC13O[C@H](C1CCCCC1)[C@@H](C1CCCCC1)O3)O[C@H](C1CCCCC1)[C@@H](C1CCCCC1)O2 | inactive: > 50 µM |
| FC(F)(F)c1ccccc1/C=N/C12CC3CC(CC(C3)C1)C2 | inactive: > 100 µM |
| CCC(=O)c1c(NOC2OC(COC(C)=O)C(OC(C)=O)C(OC(C)=O)C2OC(C)=O)nc(OC)n(C)c1=O (stereo unspecified) | inactive: > 100 µM |
| C=CCn1cnc2c(O)nc(Nc3ccccc3)nc21 | inactive: > 100 µM |
| C=CCN1/C(=C(\C#N)c2nc3ccccc3[nH]2)Sc2c1nc[nH]c2=O | inactive: > 100 µM |
| CCCCCCCCCCCCNC(=S)OC | inactive: 27 µM |
| CN1C(=O)C2C=CC1C1CCC2N(C)C1=O (stereo unspecified) | inactive: > 100 µM |
| CC(C)(C)C1=CC(=N/N=c2\scc(-c3ccccc3)n2-c2ccccc2)C=C(C(C)(C)C)C1=O | inactive: > 100 µM |
| CC1(C)[C@@H](Cn2cc(I)c(=O)[nH]c2=O)CC[C@@]1(C)CO | inactive: > 100 µM |
| O=c1c2ncn(CCCl)c2n(-c2ccccc2)c(=S)n1-c1ccccc1 | inactive: > 100 µM |
| COc1ccc(C2=CC3CCC2C3)cc1 (stereo unspecified) | inactive: > 100 µM |
| C#CN1C(=O)c2c(c(-c3ccccc3)c(-c3ccc(Oc4ccc(-c5c(-c6ccccc6)c6c(c(-c7ccccc7)c5-c5ccccc5)C(=O)N(C#C)C6=O)cc4)cc3)c(-c3ccccc3)c2-c2ccccc2)C1=O | inactive: > 100 µM |
| COC(=O)c1sc(=NC(=S)N2CCCCC2)sc1C(=O)OC | inactive: > 100 µM |
